Laboratory results as given in publication PMC9911399, “Two distinct binding modes provide the RNA-binding protein RbFox with extraordinary sequence specificity”.
Residue numbers refer to the chain shown, from its start. The list shows a part of the results.

T1: RBFOX1 RRM (Homo sapiens, UniProt Q9NWB1 109-208)
T1 sequence: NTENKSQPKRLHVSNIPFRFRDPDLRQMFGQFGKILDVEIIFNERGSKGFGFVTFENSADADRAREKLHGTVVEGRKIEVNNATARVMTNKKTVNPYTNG

B1: UCCAUGG (DNA:RNA)
RNA: GGGAGACCGGAAUUCAGAUUGUCCUCCAUGGUUAAAUCCCGUCGUAGCCACCA
DNA 1: CAATCTGAATTCCGGTCTCCC
DNA 2: TGGTGGCTACGACGGGATT
B2: UUGCCGA (DNA:RNA)
RNA: B1 RNA with C26U, C27G, A28C, U29C, G31A
DNA 1: CAATCTGAATTCCGGTCTCCC
DNA 2: TGGTGGCTACGACGGGATT
B3: GACUCGC (DNA:RNA)
RNA: B1 RNA with U25G, C26A, A28U, U29C, G31C
DNA 1: CAATCTGAATTCCGGTCTCCC
DNA 2: TGGTGGCTACGACGGGATT
B4: AGCGACA (DNA:RNA)
RNA: B1 RNA with U25A, C26G, A28G, U29A, G30C, G31A
DNA 1: CAATCTGAATTCCGGTCTCCC
DNA 2: TGGTGGCTACGACGGGATT
B5: UAGAUAG (DNA:RNA)
RNA: B1 RNA with C26A, C27G, G30A
DNA 1: CAATCTGAATTCCGGTCTCCC
DNA 2: TGGTGGCTACGACGGGATT
B6: ACAGAUC (DNA:RNA)
RNA: B1 RNA with U25A, C27A, A28G, U29A, G30U, G31C
DNA 1: CAATCTGAATTCCGGTCTCCC
DNA 2: TGGTGGCTACGACGGGATT
B7: UUCACCC (DNA:RNA)
RNA: B1 RNA with C26U, U29C, G30C, G31C
DNA 1: CAATCTGAATTCCGGTCTCCC
DNA 2: TGGTGGCTACGACGGGATT
B8: GAAUAUA (DNA:RNA)
RNA: GGGAGACCGGAAUUCAGAUUGUCCGAAUAUAUUAAAUCCCGUCGUAGCCACCA
DNA 1: CAATCTGAATTCCGGTCTCCC
DNA 2: TGGTGGCTACGACGGGATT
B9: GAAGAAA (DNA:RNA)
RNA: B8 RNA with U28G, U30A
DNA 1: CAATCTGAATTCCGGTCTCCC
DNA 2: TGGTGGCTACGACGGGATT
B10: UACACCA (DNA:RNA)
RNA: B1 RNA with C26A, U29C, G30C, G31A
DNA 1: CAATCTGAATTCCGGTCTCCC
DNA 2: TGGTGGCTACGACGGGATT
B11: ACAACGU (DNA:RNA)
RNA: B1 RNA with U25A, C27A, U29C, G31U
DNA 1: CAATCTGAATTCCGGTCTCCC
DNA 2: TGGTGGCTACGACGGGATT
B12: AGAGAAU (DNA:RNA)
RNA: B8 RNA with G25A, A26G, U28G, U30A, A31U
DNA 1: CAATCTGAATTCCGGTCTCCC
DNA 2: TGGTGGCTACGACGGGATT
B13: AUACGGG (DNA:RNA)
RNA: B1 RNA with U25A, C26U, C27A, A28C, U29G
DNA 1: CAATCTGAATTCCGGTCTCCC
DNA 2: TGGTGGCTACGACGGGATT
B14: CAUUCUC (DNA:RNA)
RNA: B8 RNA with G25C, A27U, A29C, A31C
DNA 1: CAATCTGAATTCCGGTCTCCC
DNA 2: TGGTGGCTACGACGGGATT
B15: UCUGUCU (DNA:RNA)
RNA: B1 RNA with C27U, A28G, G30C, G31U
DNA 1: CAATCTGAATTCCGGTCTCCC
DNA 2: TGGTGGCTACGACGGGATT
B16: UGACAUU (DNA:RNA)
RNA: B8 RNA with G25U, A26G, U28C, A31U
DNA 1: CAATCTGAATTCCGGTCTCCC
DNA 2: TGGTGGCTACGACGGGATT
B17: AAGCCUU (DNA:RNA)
RNA: B8 RNA with G25A, A27G, U28C, A29C, A31U
DNA 1: CAATCTGAATTCCGGTCTCCC
DNA 2: TGGTGGCTACGACGGGATT
B18: CCCUCAU (DNA:RNA)
RNA: B1 RNA with U25C, A28U, U29C, G30A, G31U
DNA 1: CAATCTGAATTCCGGTCTCCC
DNA 2: TGGTGGCTACGACGGGATT
B19: GGUCAUU (DNA:RNA)
RNA: B8 RNA with A26G, A27U, U28C, A31U
DNA 1: CAATCTGAATTCCGGTCTCCC
DNA 2: TGGTGGCTACGACGGGATT
B20: AAGAGCA (DNA:RNA)
RNA: B8 RNA with G25A, A27G, U28A, A29G, U30C
DNA 1: CAATCTGAATTCCGGTCTCCC
DNA 2: TGGTGGCTACGACGGGATT
B21: ACAUAGC (DNA:RNA)
RNA: B8 RNA with G25A, A26C, U30G, A31C
DNA 1: CAATCTGAATTCCGGTCTCCC
DNA 2: TGGTGGCTACGACGGGATT
B22: ACUCAAA (DNA:RNA)
RNA: B8 RNA with G25A, A26C, A27U, U28C, U30A
DNA 1: CAATCTGAATTCCGGTCTCCC
DNA 2: TGGTGGCTACGACGGGATT
B23: CCCGAGC (DNA:RNA)
RNA: B1 RNA with U25C, A28G, U29A, G31C
DNA 1: CAATCTGAATTCCGGTCTCCC
DNA 2: TGGTGGCTACGACGGGATT
B24: UAAGGGU (DNA:RNA)
RNA: B8 RNA with G25U, U28G, A29G, U30G, A31U
DNA 1: CAATCTGAATTCCGGTCTCCC
DNA 2: TGGTGGCTACGACGGGATT
B25: GGACUCA (DNA:RNA)
RNA: B8 RNA with A26G, U28C, A29U, U30C
DNA 1: CAATCTGAATTCCGGTCTCCC
DNA 2: TGGTGGCTACGACGGGATT
B26: GCCGGCC (DNA:RNA)
RNA: B1 RNA with U25G, A28G, U29G, G30C, G31C
DNA 1: CAATCTGAATTCCGGTCTCCC
DNA 2: TGGTGGCTACGACGGGATT
B27: CACCUAA (DNA:RNA)
RNA: B8 RNA with G25C, A27C, U28C, A29U, U30A
DNA 1: CAATCTGAATTCCGGTCTCCC
DNA 2: TGGTGGCTACGACGGGATT
B28: CUGUCAC (DNA:RNA)
RNA: B8 RNA with G25C, A26U, A27G, A29C, U30A, A31C
DNA 1: CAATCTGAATTCCGGTCTCCC
DNA 2: TGGTGGCTACGACGGGATT
B29: GGCAUAU (DNA:RNA)
RNA: B1 RNA with U25G, C26G, G30A, G31U
DNA 1: CAATCTGAATTCCGGTCTCCC
DNA 2: TGGTGGCTACGACGGGATT
B30: CUUGUAC (DNA:RNA)
RNA: B1 RNA with U25C, C26U, C27U, A28G, G30A, G31C
DNA 1: CAATCTGAATTCCGGTCTCCC
DNA 2: TGGTGGCTACGACGGGATT
B31: GCCAUAC (DNA:RNA)
RNA: B1 RNA with U25G, G30A, G31C
DNA 1: CAATCTGAATTCCGGTCTCCC
DNA 2: TGGTGGCTACGACGGGATT

Each binder was assayed against T1, RBFOX1 RRM (assay: EMSA; HiTS-Eq, 1 nM pool, 10 min; buffer printed only for the single-RNA assays: 10 mM Tris pH 7.5, 150 mM NaCl, 3.4 mM EDTA, 0.001% NP-40, 30 C). Conditions: tags: His6 N-terminal (pET28a); label: 5' 32P.
How it was run: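 A pool of RNA with 7 randomized nucleotides, 5′-radiolabelled and with DNA-annealed flanks, was equilibrated at 1 nM for 10 min in 50 µL with purified RbFox RRM, wild type or mutant, across increasing protein concentrations. Free RNA was separated by 8% native PAGE, excised, reverse-transcribed, barcoded by PCR and sequenced. Relative association constants were obtained from read-count changes of each RNA species versus the control reaction and normalised to the cognate motif.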
With B1 the binding signal was 0.00753 KA relative to UGCAUGU.
B2 was tested, and the binding signal was 0.0237 KA relative to UGCAUGU.
B3 was tested, and the binding signal was 0.0153 KA relative to UGCAUGU.
B4 was tested, and the binding signal was 0.00503 KA relative to UGCAUGU.
With B5 the binding signal was 0.0131 KA relative to UGCAUGU.
In the case of B6, the binding signal is reported as 0.0041 KA relative to UGCAUGU.
In the case of B7, the binding signal is reported as 0.00269 KA relative to UGCAUGU.
B8 was tested, and the binding signal was 0.00348 KA relative to UGCAUGU.
For B9, the binding signal was 0.00856 KA relative to UGCAUGU.
B10 was tested, and the binding signal was 0.00208 KA relative to UGCAUGU.
With B11 the binding signal was 0.00192 KA relative to UGCAUGU.
With B12 the binding signal was 0.00723 KA relative to UGCAUGU.
B13 was tested, and the binding signal was 0.00291 KA relative to UGCAUGU.
With B14 the binding signal was 0.00137 KA relative to UGCAUGU.
B15 was tested, and the binding signal was 0.0121 KA relative to UGCAUGU.
For B16, the binding signal was 0.0112 KA relative to UGCAUGU.
For B17, the binding signal was 0.0057 KA relative to UGCAUGU.
With B18 the binding signal was 0.00127 KA relative to UGCAUGU.
With B19 the binding signal was 0.0139 KA relative to UGCAUGU.
For B20, the binding signal was 0.00743 KA relative to UGCAUGU.
B21 was tested, and the binding signal was 0.00213 KA relative to UGCAUGU.
For B22, the binding signal was 0.00466 KA relative to UGCAUGU.
In the case of B23, the binding signal is reported as 0.00293 KA relative to UGCAUGU.
For B24, the binding signal was 0.00357 KA relative to UGCAUGU.
B25 was tested, and the binding signal was 0.00938 KA relative to UGCAUGU.
For B26, the binding signal was 0.0116 KA relative to UGCAUGU.
B27 was tested, and the binding signal was 0.00062 KA relative to UGCAUGU.
In the case of B28, the binding signal is reported as 0.0113 KA relative to UGCAUGU.
For B29, the binding signal was 0.00314 KA relative to UGCAUGU.
In the case of B30, the binding signal is reported as 0.00942 KA relative to UGCAUGU.
In the case of B31, the binding signal is reported as 0.00662 KA relative to UGCAUGU.
